PubChem BioAssay AID1956 (SRMLSC, 2009)
This is one part of the list. Shown are side measurements of this screen, not its main read-out; they come without a call.

Assay: compounds boosting herpes simplex virus growth – fold increase, host cell viability (AID 1956); note: tested in PC3 cells
Conditions: HSV replication augmentation in cells; fold increase: measured here: primary screen fold increase 10 uM, at 10 µM, stronger effect = higher value; viability: measured here: host cell viability series, at 25 µM, stronger effect = lower value

| SMILES | fold increase | viability [%] |
| --- | --- | --- |
| Cc1ccc(C(=O)NCc2n[nH]c(=S)n2-c2ccccc2)cc1[N+](=O)[O-] | 1.34 | 92.1 |
| CN1/C(=C\C=C(/C#N)C(=O)Nc2ccc(Cl)cc2)C(C)(C)c2ccccc21 | 1.5 | – |
| NS(=O)(=O)c1cccc(NC(=O)CN2CCc3ccccc32)c1 | 1.64 | 96.9 |
| CC(=O)c1cccc2c(O)c(C3=Nc4ccccc4C3=O)[nH]c12 | 1.4 | – |
| CC(NC(=O)C(c1ccccc1)c1ccccc1)C(=O)N1CCCCC1 (centres undefined) | 1.32 | – |
| CCC(CC)C(=O)Nc1ccc(Sc2ccc([N+](=O)[O-])cc2)cc1 | 1.33 | 87.1 |
| NCCc1nnc(SCC(=O)c2ccc(Cl)cc2)o1 | 1.33 | 93.9 |
| COc1cc(C=C2C(=O)c3ccccc3C2=O)cc(OC)c1OC | 1.84 | 93.7 |
| CC(C)C1OC2(C)OC(=N)C1(C#N)C(C#N)(C#N)C2c1ccccc1 (centres undefined) | 1.84 | – |
| O=[N+]([O-])c1ccc(N/N=C/c2ccc(OCc3cccc4ccccc34)cc2)nc1 | 1.37 | – |
| CC(=O)N1c2ccc3ccccc3c2C2C=CCC2C1c1ccc(Br)cc1 (centres undefined) | 1.92 | 46.6 |
| COc1ccc(CNC(=O)C(c2ccco2)N(C(=O)Cc2cccs2)c2cccnc2)cc1 (centres undefined) | 1.32 | – |
| O=C(O)CSCC(=O)N1CCCN(c2nc3ccc(Cl)cc3s2)CC1 | 1.34 | 93.9 |
| c1csc(C2Nc3cccc4cccc(c34)N2)c1 | 1.24 | – |
| Cc1cc2n(n1)C(c1ccccc1)CC(c1ccc(Br)cc1)=N2 (centres undefined) | 1.77 | 88.4 |
| N#CCSc1nc2c(c(=O)n1Cc1ccccc1)C1(CCCC1)Cc1ccccc1-2 | 1.2 | – |
| COc1ccc(C2CC(c3ccc(Cl)c(Cl)c3)Nc3nc(N)nn32)cc1 (centres undefined) | 1.47 | 34 |
| CN(C)C(=O)Nc1ccccc1 | 1.34 | 102 |
| COCCCn1c(=O)/c(=C\c2ccc(OC(F)F)c(OC)c2)s/c1=C(/C#N)C(=O)NCCOC | 1.66 | 94.4 |
| CCCN1C=CC(=CC=C(C#N)C#N)C=C1 | 2.45 | 95.5 |
| CCCCNc1ccc2c3c(cccc13)C(=O)N(CCCC)C2=O | 7.6 | 79 |
| COc1cc(/C=C2\SC(=Nc3ccc(O)cc3)NC2=O)cc(OC)c1O | 4.69 | 74.9 |
| CCOC(=O)C1CCCN(CC(=O)NC2CC2)C1 (centres undefined) | 1.4 | 95.2 |
| Cc1cc[n+](-c2nc3ccccc3nc2[N-]S(=O)(=O)c2ccccc2)cc1 | 1.39 | 96.9 |
| C=CCOC(=O)C1=C(C)NC(SCC(=O)Nc2ccc(C)c(Cl)c2)=C(C#N)C1c1ccco1 (centres undefined) | 1.56 | – |

| SMILES | fold increase | viability [%] |
| --- | --- | --- |
| CN(C)S(=O)(=O)c1ccc(Cl)c(NC(=O)COC(=O)CCC(=O)c2cccs2)c1 | 1.36 | 93.3 |
| O=[N+]([O-])c1ccc(-c2nc(-c3cccs3)c(-c3cccs3)[nH]2)cc1 | 1.19 | 77.7 |
| COc1ccc(N2CCN(C(=O)Cc3ccc(S(=O)(=O)N4CCOCC4)s3)CC2)cc1 | 1.33 | 93.3 |
| CC(C)C1Nc2ccc(C(=O)O)cc2C2C=CCC21 (centres undefined) | 1.42 | 105 |
| CCOC(=O)/C(=C/C=C1\Sc2ccccc2N1CC)C(C)=O | 5.19 | 83.2 |
| Cc1ccc(S(=O)(=O)N(C(=O)c2ccncc2)c2ccc(OC(=O)c3ccncc3)c3ccccc23)cc1 | 1.75 | 24.6 |
| CCOC(=O)Cc1csc(NC(=O)c2sc3nc4c(C)cc(C)cc4cc3c2N)n1 | 2.53 | 98.9 |
| CC[n+]1ccccc1/C=C/c1ccc(N(C)C)cc1 | 1.86 | 36.4 |
| CCn1c(C)[n+](CC)c2ccc(S(=O)(=O)N(C)C)cc21 | 1.47 | 104 |
| Cc1c(C(=O)/C=C/N(C)C)nnn1-c1ccc(F)c(Cl)c1 | 1.36 | 103 |
| CCOC(=O)C1CCN(C(=O)CSc2cc(=O)n(CC)c3ccccc23)CC1 | 1.32 | 95.1 |
| CC(=O)/C(C#N)=C1\NC(=O)C(Cc2ccc(C)c(Cl)c2)S1 (centres undefined) | 1.88 | 87.8 |
| COc1ccnc(NCc2cccnc2)c1C#N | 1.37 | 100 |
| Nc1nc(SCC(=O)Nc2ccccc2)nc2nc3c(cc12)CCCC3 | 1.32 | – |
| CCN(CC)S(=O)(=O)c1ccc2c(c1)nc(CCC(=O)OCC(=O)N1CCc3ccccc31)n2C | 1.16 | – |
| CN(C)/C=C(\C=O)c1ncc(C(F)(F)F)cc1Cl | 1.39 | 98.7 |
| C=CCN1C(=O)c2cccc3c(N4CCCCC4)ccc(c23)C1=O | 8.38 | – |
| C=CCn1c(=O)[nH]c2nc3cc(N=CN(C)C)c(C)cc3nc2c1=O | 3.95 | 95.6 |
| N#C/C(=C/c1ccco1)c1nc2ccccc2s1 | 1.51 | 88.5 |
| N=C1/C(=C\c2coc3ccccc3c2=O)C(=O)N=C2SC=CN12 | 1.85 | 98.6 |
| Cc1ccc(C)c(-n2c(CNc3ccc(F)cc3)nnc2SCC(N)=O)c1 | 1.36 | 98.2 |
| C[n+]1cc(C(=O)N2CCCCC2)ccc1/C=C/c1c[nH]c2ccccc12 | 3.22 | – |
| COc1ccc(NC(=O)Cn2c(=O)c(C)nc3ccccc32)cc1Cl | 1.32 | – |
| CN(C)c1ccc(/C=C/C(=O)c2cccc(Br)c2)cc1 | 2.33 | 79.6 |
